Data published in patent publication US20170037129A1.

How the values were obtained:
[1] = target: endogenous human CD147 expressed on human cancer cells (human) (UniProt P35613); experiment: flow cytometry on K562 cells
[2] = target: endogenous human CD147 expressed on human cancer cells (human) (UniProt P35613); experiment: flow cytometry on A549 cells
[3] = target: endogenous human CD147 expressed on human cancer cells (human) (UniProt P35613); experiment: flow cytometry on PC-3 cells

EC50 [1]: 5.74 nM
EC50 [2]: 8.73 nM
EC50 [3]: 5.2 nM
B1: C4sh1A5 (antibody, V domains shown)
VH: [about 100 residues skipped]DQDFDYWGQGTLVTVSS
VL: DVVMTQSPSSLSASVGDRVTITCRASQGIATNLAWFQQKPGKAPKSLIYAASSLQSGVPSKFSGSGSGTAFTLTISSLQAEDFGTYYCQQYNNYPYTFGQGTKVEIK
